From the supplement of paper PMC10126150
Values marked as one replicate rest on one cluster of the flow cell; about a third of the high ones do not repeat.

Test system: ATP
Assay: switch fluorescence ratio, 500 uM ATP over buffer (Cy3 cluster intensity, sum of 5 cycles each) (fold (ratio)); higher = stronger signal-on switching upon ATP binding; sequences stand for … in TCGTCGGCAGCGTCAGATGTGTATAAGAGACAGTTTTTTTTTTTTTTTTTTTTTTTTT…TC
Details: aptamer strand: ATP DNA aptamer (quencher-CACCTGGGGGAGTATTGCGGAGGAAGG + anchor), 100 nM annealed; ATP concentration: 500 uM; one replicate
Method in brief: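 Imaging in selection buffer was followed by imaging after 15 min with 500 uM ATP at 22 °C, for Cy3-labelled switching-strand clusters annealed to 100 nM quencher-labelled ATP aptamer on a modified Illumina MiSeq flow-cell. Five of these buffer/ATP cycles ran, separated by NaOH stripping and re-annealing. The fluorescence ratio per cluster is summed target-cycle over summed buffer-cycle Cy3 intensity, averaged per switch-domain sequence; clusters outside 100-1000 RFU were removed.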
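Further: ATP exposure 15 min at 22 °C before imaging.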

Sequence	switch fluorescence ratio
TGTAGTGGGA	1.06
GCTAGAGT	0.973
GATTAATTTA	1.01
ATGACTCCGG	1.11
AAGATTTGGA	1.02
AGGTGCTGC	1.02
GCGTGCAGTG	0.969
TCACATTTGC	0.974
ATTGGAATGA	1.01
TATGGAACGT	1.05
CCCCGTTC	1.75
ATAGCATATA	1.04
GATGATTCTA	1.02
TACGATGTAG	1.06
GCCGAGGATG	0.978
CGTGGTACGA	1.08
TATCTATGTG	0.976
CTCTGACTTT	0.986
TCCAGCGACT	1.13
ACTAGGGAG	1.02
TATTTTGACA	0.951
GGCTATTACA	1.02
TAATGAAATT	1.01
GTTGTCAAGG	0.999
CCGTACGGTA	1.03
AGGTGTTACG	0.964

Sequence	switch fluorescence ratio
AATGCCGTGT	0.98
GGGGGATAAT	1.03
CAGCAGACCG	1.03
GCGGCCACGG	1.03
GTAATCGAAA	1.03
TACTCATAGT	0.948
GGATGCACAT	1.09
ACAATGGCTT	1
ACGAGAAACG	0.972
ACGGTGTGTT	1.04
TTTCATCTA	1.05
GTGCAACCGA	1.04
CTATATCGAA	1.04
AATCAAAGC	1.03
AGATCTTCTG	1.07
TCAAAATACC	1.01
GAATGAGCAA	1.71
ATGTCTACGT	1.02
GAGGTTGGAC	0.972
TCGCCCAGAC	3.1
AGGTGGTGCA	1.02
TACAATAGAG	1.02
AGAGTACGTC	0.986
AATATAGTGT	1.02
ATACTCATCA	1.03
TCTCGAAATC	1.05

Sequence	switch fluorescence ratio
CCGAACAGTG	1.32
GCTAAAAGGG	0.981
CTCGTCGGGC	0.984
AGTGTGTGCA	1.02
TTGAAGATGG	0.965
ACGCTTAAGT	1.06
GTGTCTTTAT	0.942
CTTGAAACGG	0.993
AAAACATCAT	1.05
TTCTGTTGCC	0.991
GTGGTCGATA	1.01
GGGAAGGATA	0.991
TACAATTCTC	1.05
CCGAATCAAG	2.09
CCTAGGCTAG	1.13
ATGGTAAATG	0.962
CGAGTTTATT	1.02
ATTTTGAACG	1.03
CCCTGGGAGC	1.02
TGCGGGGTGT	1.01
TTGCGGACAG	1.03
GAGAGTGAAA	1.03
ACCGCCTCGA	1.18
CGCCTGAAGG	0.975
CGTTGTCTAA	0.981
GAAAGATCGG	1.07

Sequence	switch fluorescence ratio
TTAAATCATC	1.06
AAATCATCCA	0.989
GAAGTGACTC	1.11
TACCGTCCCT	1.14
GGCTTCTCGT	1.02
TGGAAT	0.976
GATGGAGACG	1.05
CACACAACTA	1.14
ACTAGGGTAC	1.05
TCTCTTTACG	1.03
CTTTTTAAT	1.09
ACGCATAGGG	1.17
ATTGTTCGTA	1.03
GCTAGGCAAG	0.995
CGGGGAAGT	0.975
GGGTTGGCA	1.02
TACTGGGGCC	1.05
CAGGCCATGT	0.966
CACGGGTATA	1.02
GGCACAGTGT	0.985
TCTCATAGG	1.04
GAACTGGTCT	1.01
TCATATTTTA	1.02
GCATGCATTA	1.03
CTTGGCTCAC	1.06
TACACGACAC	1.81

Sequence	switch fluorescence ratio
GACATAGGCG	1.03
CCGGGGGCG	0.947
ACCGCGAAGA	1.37
CTCCAGACTA	1.11
ATGCGTATAG	0.978
TAAATTGCCT	0.985
CTTTTTTCTT	1
CTATAGGGA	0.977
GCGGCATGAT	0.99
GTCACGGTCG	1.03
CGATTTTTAT	1.01
CCACCAAGGT	2.01
TTTGTTCAC	0.992
CTGTAAATGG	1.05
TGATTTTTA	0.956
ATGCACAGTG	1.07
ATGGGGCGGG	0.99
CTGCACGCCA	1.48
ACTCTTGACT	1.05
TTGTATGAT	0.981
TTATCGATGC	1.06
GGAGGGTTGC	0.882
TACTTTATGA	1.05
TGAAGAGCCG	1.05
AAACGCAGTA	1.02
GCCGATGTCG	0.986

Sequence	switch fluorescence ratio
TCACGTGCTA	1.03
ATCGGGATTT	0.912
GACTTCCACG	1.04
CTATCATGGA	0.948
TATTTAGTGC	1.07
TTTAACCTTA	1.14
ACATACATTC	1.2
AGACTCGGT	1.05
CGCATTTGGC	1.25
TAGGTGACAG	1
CAACAGCTAG	0.995
GCTAATAAAA	1.01
CGCATATCGG	1.43
TGAGCTATCG	0.974
GAGGCAGCAC	2.16
AACCAACGCA	1.62
TCCGCTTCGT	1.24
TTGCAAAAGA	0.994
CGAATCTGCG	0.99
ATTCGGGGTC	0.965
CTACCCTTCG	1.37
TCAATTTTAC	2.02
CAAGTCGAAA	1
AAGGGTTAGT	0.988
TCTGTCACCA	1.1
CAGCATACTA	2.27

Sequence	switch fluorescence ratio
TCAAATGGGT	0.991
AATTTGATG	1.01
GATGATATGC	1.05
GCAACCCCAC	1.28
CTCGAGTACC	1.07
AGAGGGATGA	1.01
TACAGGCTGC	1.02
CGTACACAAT	2.07
CCAATGATTC	1.04
TGTGGGGGCC	0.994
GGGCAAGGA	0.99
TCACTGGCTA	1.01
GCCGACTCGC	1.13
TTTGAAAATC	1.05
AACAAAAAAC	1.09
TGAACATACT	1.17
GGCTGTTTAC	1.02
TATTATACG	1.04
GACTATCCGG	0.981
GGATTGCACT	1
CTCGCAAAGG	3.24
TTTTGCACAC	1.02
TAATCGGATT	0.961
AGGGAGGCAT	1.06
GTATGATCGC	1.02
CGACGCTACG	1.96

Sequence	switch fluorescence ratio
TAAGGATAGA	1.02
GGCGCGCGTA	1.05
GCGCGTGGG	1.03
ATCTCGTACA	1.01
ACTGCATCAA	0.985
ATGGTCTGCA	0.945
GGTCTGTGGA	1.01
TTGATGTATA	1.01
ATCTGCAGGA	1.02
AATGGGCCTG	0.967
ATGGAAAAGT	1.01
GCGTGGAATG	0.965
TTTTAGGATC	0.982
CGCTTCAGTA	0.985
TTAGGGCTGT	0.991
AAAATGTGTA	0.981
AATTCCCCCG	1.4
GGCGTGGGGC	1.05
GGTTCCTGAG	1.04
